PubChem BioAssay AID1159614 (National Center for Advancing Translational Sciences (NCATS), 2016)
The campaign covered roughly 45,000 compounds. About 65 (0.1%) were called active. The call rests on the fitted dose curve; in most records, active means well fitted activation curve with a large enough effect; inconclusive means small, poorly fitted or top-dose-only effect; inactive means no such curve, though single readings can be large or run the other way. The list shows a part of the results.

These molecules were tested against Galactocerebrosidase (Homo sapiens) (UniProt P54803) (assay: A Novel Cell-Based Assay to Identify Small Molecules for B -Galactocerebrosidase). Conditions: 145M-Twi-hGALC-G270D cells (Twitcher mouse brain line with human GALC G270D), HMU-beta-Gal fluorescence, 48 h; series mostly up to 57.5 µM; activation: at the top concentration.
Sequence of UniProt P54803 (P54803 whole entry, looked up): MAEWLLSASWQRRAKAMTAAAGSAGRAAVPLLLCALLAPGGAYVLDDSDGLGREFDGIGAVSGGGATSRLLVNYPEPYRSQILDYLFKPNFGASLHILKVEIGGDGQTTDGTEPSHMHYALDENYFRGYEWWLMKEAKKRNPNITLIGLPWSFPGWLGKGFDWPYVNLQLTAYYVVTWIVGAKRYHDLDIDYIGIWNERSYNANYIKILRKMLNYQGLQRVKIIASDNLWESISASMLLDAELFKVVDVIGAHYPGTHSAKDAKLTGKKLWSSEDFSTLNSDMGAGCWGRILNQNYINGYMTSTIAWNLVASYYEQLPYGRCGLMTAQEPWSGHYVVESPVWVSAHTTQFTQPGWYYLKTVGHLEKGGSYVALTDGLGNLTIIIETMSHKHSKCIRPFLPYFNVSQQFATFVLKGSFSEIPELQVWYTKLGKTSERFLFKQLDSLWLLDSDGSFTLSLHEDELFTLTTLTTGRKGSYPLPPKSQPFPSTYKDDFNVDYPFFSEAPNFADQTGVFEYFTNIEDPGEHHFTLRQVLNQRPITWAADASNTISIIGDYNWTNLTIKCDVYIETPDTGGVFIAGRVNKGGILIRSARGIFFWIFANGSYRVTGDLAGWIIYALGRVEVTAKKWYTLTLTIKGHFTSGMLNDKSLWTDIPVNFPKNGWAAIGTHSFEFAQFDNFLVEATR
In short: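 Live 145M-Twi cells (Twitcher mouse brain-derived, GALC-null) stably expressing human GALC-G270D, with a wild-type GALC line, were compound-treated. Residual GALC activity was then read as fluorescence from 0.1 mM final HMU-β-gal at pH 5.2; higher signal means activation.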
Further: 0% is about no effect; nearly all actives have a fitted effect of over 65% in size.

activation, inactive:
CCOC(=O)COc1ccc(CC)cc1C(=O)c1ccn2nc(-c3ccc(F)cc3)cc2n1 -10%, Cc1ccc(NC(=O)CN2C=NS(=O)(=O)c3ccccc32)cc1 -10.2%, CCOC(=O)c1cnc2ccc(Br)cc2c1NCCN1CCOCC1 -28.2%, Cc1ccc(CCNC(=O)Cn2c(-c3cccs3)cc3ccccc32)cc1 1.11%, Cc1cccc(CNC(=O)c2cc3cc(S(=O)(=O)N4CCCCC4)ccc3n2C)c1 -1.2%, O=C(Nc1ccc(C(=O)OCc2cc(=O)n3nc(C4CC4)sc3n2)cc1)c1ccccc1 -16.7%, Clc1ccc2c(c1)-n1cc(-c3ccccc3)nc1CO2 -4.87%, CCc1ccc(S(=O)(=O)c2cn(Cc3ccccc3)c3cc(N4CCCC4)c(F)cc3c2=O)cc1 -12.4%, Cc1ccc(N2CC(NC(=O)c3ccccc3C(F)(F)F)CC2=O)cc1C (configuration not stated) -15%, COc1ccc(Cl)cc1S(=O)(=O)Nc1ccc2[nH]c(=O)[nH]c2c1 -27.4%, Cc1ccc(Cl)cc1N1CCN(C(=O)CCS(=O)(=O)c2cc(Br)cc3c2N(C(=O)C2CC2)CC3)CC1 -19.3%, COc1ccc(NC(=O)CSc2oc(-c3cccs3)nc2S(=O)(=O)c2ccccc2)c(OC)c1 -8.72%, Cc1ccc(Cn2c(SCc3ccc(C(=O)N4CCCCC4)cc3)nc3ccncc32)cc1 -25.9%, CCC(=O)OC1=C(C(C)=O)N(Cc2ccccc2)S(=O)(=O)c2ccccc21 -9.64%, CCc1ccccc1N1C(=O)CN(S(=O)(=O)CC)CC1(C)C(=O)NC1CCCCC1 (configuration not stated) 0.614%, CCc1ccccc1NC(=O)Cn1nc(CC)n2c(cc3sccc32)c1=O -19.6%, Cc1ccccc1NC(=O)C1CCN(S(=O)(=O)c2c(C)noc2/C=C/c2ccco2)CC1 -13.1%, COc1ccc(C(=O)NCc2ccc3c(c2)CCN3C(C)=O)c(OC)c1 -13.9%, COc1ccc(NC(=O)C2CCCN(c3ncnc4onc(C)c34)C2)cc1OC (configuration not stated) -9.02%, CCC(=O)N1CCc2cc(CNC(=O)c3cccc(N(C)C)c3)ccc21 -9.98%, CCOc1ccc(OCC)c(NC(=O)c2nnn(CC(=O)Nc3cc(Cl)ccc3OC)c2N)c1 -4.13%, COc1ccc(-c2cc(C(=O)N3CCCCC3C)no2)cc1OC (configuration not stated) -9.63%, NC(=O)c1ccc([N+](=O)[O-])cc1Cl -10.9%, CCOc1ccccc1C1C(C(=O)Nc2ccccc2)=C(C)Nc2nc(SCC(=O)c3ccc(C)cc3)nn21 (configuration not stated) 1.34%, CC1CCCCN1CCCNC(=O)CN1C(=O)c2cccnc2Oc2ccc(Cl)cc21 (configuration not stated) 14.6%, COc1ccc(C(=O)c2sc3nc4c(c(C(F)(F)F)c3c2N)CN(C(C)=O)CC4)cc1OC -13.8%, CN(C(=O)CSc1nc(-c2ccccc2)no1)c1ccc(F)cc1 -6.71%
